Measurements reported in publication PMC12136788.
Some of the results follow.

T1: UNK ZnF1-3 (human, UniProt Q9C0B0 31-174)
T1 sequence: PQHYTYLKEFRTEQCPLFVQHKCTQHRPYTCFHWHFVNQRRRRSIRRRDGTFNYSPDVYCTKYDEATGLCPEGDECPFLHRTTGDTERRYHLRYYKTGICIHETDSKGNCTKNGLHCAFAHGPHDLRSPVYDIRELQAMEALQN

B1: chr4:57860909:57860910:+_ENSG00000047315_ENST00000314595|hu_hu|FALSE|FALSE (ssRNA)
RNA: GGGAGUUCUACAGUCCGACGAUCAUCUGUCAAGCCAUUCAAAAGGCAGUAAGUUGACCGCAACAUAAUUGGAAUUUUUCCUAUAAAAGUUUUCUGAUGCUGAGUCUGAAGUUGUUCUUCACCUUCUUUAAUGACUGUUUUUGUCAACAGAGGAUUGAGCAUCA
B2: chr16:13782116:13782117:+_ENSMUSG00000022682_ENSMUST00000023363|mus_mus|FALSE|FALSE (ssRNA)
RNA: GGGAGUUCUACAGUCCGACGAUCGACUUCUGUCACAGUUCCGCCAAACCGAACAGUUUUUUUCGGAGGAGAAUUGAAGAAAUCGCUCUCUAACGCGAGCAUAUCGGAAAGCCCAGUCCGCGACGCACUCAGCGUGGCAGAGGCCAACAGAGGAUUGAGCAUCA
B3: chr2:198351390:198351391:-_ENSG00000144381_ENST00000345042|hu_hu|hu_hu_hu_mus_False|78_108 (ssRNA)
RNA: GGGAGUUCUACAGUCCGACGAUCUCAUUCUCACUCUCCACAGAAAGGCUGCUUCUGUUCUCAUCUGUGGUGACACAGCGCUACAGUCCUGAUGCUCACAGAACAGUAGAGAUGCCUCAGUGAUUUAAGUUGAAAGCAGGACACCAACAGAGGAUUGAGCAUCA
B4: chr6:72301320:72301321:+_ENSMUSG00000058706_ENSMUST00000077783|mus_mus|FALSE|FALSE (ssRNA)
RNA: GGGAGUUCUACAGUCCGACGAUCUCUUUGAGGACCACAUAAACACAUAAAAGGCCUCUGCAGAACACUUUGUUCAUCUAGCUAUUCCUUCAUCAAGAAGUGGGAAUAACGGCAAAUUUGUAGGUGUCGGGUCCUCAGAUUCUUCAACAGAGGAUUGAGCAUCA
B5: chr7:135119151:135119152:+_ENSMUSG00000030795_ENSMUST00000128851|mus_mus|motif|central (ssRNA)
RNA: GGGAGUUCUACAGUCCGACGAUCACUUUGAAUCCCCAUUGAUAAUGCCACACACUUCAAGAAAAUGCUGUUUUCCCCCAGCGGGGGCUGGGAAAUGUCCUCAGCACAGAUGGGGGUAGGGGAAUUAGUAAUUCUUUUAAAUUACAACAGAGGAUUGAGCAUCA
B6: chr14:76904430:76904431:+_ENSMUSG00000022010_ENSMUST00000022587|mus_mus|mus_mus_mus_hu_True|78_98 (ssRNA)
RNA: GGGAGUUCUACAGUCCGACGAUCUGCAGCCAAAAACAGAGAGAGGGAAAAAAAGAGCAAGCUCCAGCAGCCUUGUAUAAGCUAGAUAAAAUCUUCUGGCUUUCCGCAGCCCAGGGAGAAACAGAAAACGGCAGCCCUAAUUUACAACAGAGGAUUGAGCAUCA
B7: chr11:77340882:77340883:-_ENSG00000074201_ENST00000525064|hu_mus|FALSE|FALSE (ssRNA)
RNA: GGGAGUUCUACAGUCCGACGAUCAACAUACAAAUGCUCUUGAGGGUAAGCGUUUGGAUCCCUGGACACCGCAUGUAAACUAAUGGUGGGGUAUUCCAGUGAGAAUCCUAAUCCCGAACCAUCUAACCAGGACAGGCGGCUCUCCAACAGAGGAUUGAGCAUCA
B8: chr12:27888400:27888401:+_ENSG00000061794_ENST00000081029|hu_mus|motif|central (ssRNA)
RNA: GGGAGUUCUACAGUCCGACGAUCGGCCUUGCAGUACCGCUCUCCUACAAGCUUAAUGAGUUUUUUCUUGGCAUGAUUGUCGGAAUUCAAACUGGAAAGUUUAACCCUUAACGUUACGGCUCGGGCUUUGGGGUUUCGAAUAGACAACAGAGGAUUGAGCAUCA
B9: chr1:130270616:130270617:-_ENSMUSG00000026356_ENSMUST00000027602|mus_hu|motif|central (ssRNA)
RNA: GGGAGUUCUACAGUCCGACGAUCGUAAUGGUAAUUAAAAGCCAUUUCAAUGUCCAAACCAACAAACUCAGUUAGAUGUCGGUGGGUAUUAGAGUCUUCCGCUCUGAAUACUGGUCCAAUAGAGAAAACCUUCUCAAAAUCAGCCAACAGAGGAUUGAGCAUCA
B10: chr2:232320318:232320319:-_ENSG00000115053_ENST00000322723|hu_hu|hu_hu_hu_mus_True|38_68 (ssRNA)
RNA: GGGAGUUCUACAGUCCGACGAUCACUAUUAAAGUCUACAAAACCAAACCCUUUGGAAGAACCAGUUUCCCGGUCAGUGACUAUUCUUGCACGAACAGAGCCGUCAAAUGAUUCUUUUAAGGUCUCUUCAGUGGUAUCCUCAGACAACAGAGGAUUGAGCAUCA
B11: chr2:202488911:202488912:-_ENSG00000155755_ENST00000286196|hu_mus|hu_hu_hu_mus_False|18_38 (ssRNA)
RNA: GGGAGUUCUACAGUCCGACGAUCAUUGAAACAUUUUUCAUAAUCUCCAGUAGCAUUUCAGCAUUAUGUAACAAAAGCUCAAUUGUAAAUACAUGUAUAUACAUCUUAUACACUUAAAUUUAAAAACGGGGAGCGCAGGCGCCACAACAGAGGAUUGAGCAUCA
B12: chr8:42711381:42711382:-_ENSG00000120925_ENST00000527424|hu_mus|FALSE|FALSE (ssRNA)
RNA: GGGAGUUCUACAGUCCGACGAUCCACUUCUCGAUACAUAAUGGAGAUGUAAAUAAGCAACAAAAAGAUAACAAAGAAAUCAUCUAGAAAGCCCAGAAUUCCAAACAAGGCUUCAGGUACAAAAUCUAGAGGUGAUAUUAAAUACAACAGAGGAUUGAGCAUCA
B13: chr4:45823916:45823917:-_ENSMUSG00000035551_ENSMUST00000044297|mus_mus|FALSE|FALSE (ssRNA)
RNA: GGGAGUUCUACAGUCCGACGAUCGAUAGGGGUACAGGGACCCCCUCCCUUCAUAACACGCACCAAAUCAGAGCACCCACUAAGCAGUUACAGACACCAAGUCACGAGUCAGCUGGCCUGUGCCUUGUUUUGAGCCCUUUAGAACAACAGAGGAUUGAGCAUCA
B14: chr8:61654917:61654918:+_ENSG00000171316_ENST00000423902|hu_mus|FALSE|FALSE (ssRNA)
RNA: GGGAGUUCUACAGUCCGACGAUCAUUCAUUGGAGUACUGUUUGUAAGGCCUAAAUUUUGAUUCAUCCCUGUACUGUUAACUAAUCCCUGAUUUAGGUUACUGUAAGGAUAUCGAGAAUACUGCCCUGAGUUGUUUACAGUAGGCAACAGAGGAUUGAGCAUCA
B15: chr2:179763710:179763711:+_ENSMUSG00000039108_ENSMUST00000058764|mus_mus|FALSE|FALSE (ssRNA)
RNA: GGGAGUUCUACAGUCCGACGAUCCUGAGGUGGCUCUGAGGACAUGUCAAGCUCUGAAACAGGCUGUGGAGAUGGAGAAGAACUAGGGCUGGAAGCAGCGGCUGAGGCUGGAGGGCUUACCAACUUCUCUAGACCUAAGGAAGCCAACAGAGGAUUGAGCAUCA
B16: chr10:1038518:1038519:+_ENSG00000107937_ENST00000545048|hu_hu|hu_hu_hu_mus_False|68_108 (ssRNA)
RNA: GGGAGUUCUACAGUCCGACGAUCCAGUCUAUCAUGGUAAUUCUGUUGAGUAAAUUUGACUUUUCUCAUGUAAAAAUGUCGAAUCCGAUGAAUUUGAUAAUGUUUAUGAAUAACCGUUGGAGUCUUUCGUUGAGUCUUGGAUAACAACAGAGGAUUGAGCAUCA
B17: chr11:87793471:87793472:-_ENSMUSG00000020483_ENSMUST00000020775|mus_mus|mus_mus_mus_hu_False|38_48 (ssRNA)
RNA: GGGAGUUCUACAGUCCGACGAUCUGGACUUGAAAAUAAAAGAAUAAGCUGGAUCCCCCACCCCCCCACAUUGUCAACCCUACACGAGUUCUGAAUGUGAUUCAUAAGAAAAUCAGCAGCUCAAACGGCAAUGACCACCCCACCCAACAGAGGAUUGAGCAUCA
B18: 119790299_119790419_8973_CDS_ENSMUSG00000033943_ENSMUST00000110774|mouse|control|control (ssRNA)
RNA: GGGAGUUCUACAGUCCGACGAUCAGUCUUCAUGUGUAAGAUGGGAGGUGAAGAUACACUUUCAGGCUCUGCGGGGAGACCAGAAGUACUCUGCCCUCCAUCACUAGAUUUCCUAUGGGAAACAAGAGAAUCCUUUAUUUCAGGCAACAGAGGAUUGAGCAUCA
B19: chr2:202488911:202488912:-_ENSG00000155755_ENST00000286196|hu_mus|hu_hu_hu_mus_False|28_78 (ssRNA)
RNA: GGGAGUUCUACAGUCCGACGAUCAUUGAAACAUUUUUCAUAAUCUCCAGUAGCAUUCAGUAUUAUAGUAACAAAAGCUCAAUUGUAAAUACAUGUAUCUUAUAAAAAUAAAAAUACAAACACGAGUGGGGAGCGCAGGCGCCACAACAGAGGAUUGAGCAUCA
B20: chr3:119236079:119236080:+_ENSG00000113845_ENST00000264244|hu_hu|FALSE|FALSE (ssRNA)
RNA: GGGAGUUCUACAGUCCGACGAUCGUGCCUUUCGAUCCUUCUGUUUUCUUUCCUGAACAGUCUCACCAGAGUACUUCUGAAAUGCCAUCAGCAGGCCUCCUACAGGAGUGCUCCUGCAAUUACAAAAUGGCUUAAGGCAUCUUUCAACAGAGGAUUGAGCAUCA
B21: 110380732_110380852_2591_3pUTR_ENSMUSG00000035798_ENSMUST00000041723|mouse|control|control (ssRNA)
RNA: GGGAGUUCUACAGUCCGACGAUCCUUUAAAUUUCAACAAAAUAGUAUGACUUAGUAUACUCAUGCAAGUGCUUUAUUUUCAGACCGUGAGACCCCAGAGCAAGGUUACUAGAAAUUAUCUCACUGAACUAGAAAUAAGCCAGCCAACAGAGGAUUGAGCAUCA
B22: chr8:98731313:98731314:+_ENSG00000147649_ENST00000336273|hu_mus|FALSE|FALSE (ssRNA)
RNA: GGGAGUUCUACAGUCCGACGAUCACAAGCUUUCUCCUGUUUUGGUCGGGCUUUUGAGGUAUUCACUGGAAGCUCUUCUCUAGUGUCCUUUUCUAGGUCUUCUGUGUCCUGUGUGUGAGAGUUAUCUUCCCCUUGCUUCUUCUUCAACAGAGGAUUGAGCAUCA

biological target: T1, UNK ZnF1-3; test: nsRBNS (natural sequence RNA bind-n-seq); RBNS binding buffer (assumed for nsRBNS): 25 mM Tris pH 7.5, 150 mM KCl, 3 mM MgCl2, 0.01% Triton X-100, 500 ug/ml BSA, 20 U/ml SUPERase-In, 4 C; UNK is unkempt and MSI1 is Musashi-1; names of the RNAs are library labels; protein concentration not given here; high values mean tight binding

Row | Binder | binding signal
1 | B1 | 0.922 enrichment R
2 | B2 | 0.622 enrichment R
3 | B3 | 1.15 enrichment R
4 | B4 | 0.782 enrichment R
5 | B5 | 1.26 enrichment R
6 | B6 | 2.9 enrichment R
7 | B7 | 1.14 enrichment R
8 | B8 | 0.786 enrichment R
9 | B9 | 0.759 enrichment R
10 | B10 | 0.764 enrichment R
11 | B11 | 2.41 enrichment R
12 | B12 | 2.6 enrichment R
13 | B13 | 1.04 enrichment R
14 | B14 | 0.764 enrichment R
15 | B15 | 1.78 enrichment R
16 | B16 | 0.509 enrichment R
17 | B17 | 2.2 enrichment R
18 | B18 | 0.699 enrichment R
19 | B19 | 1.38 enrichment R
20 | B20 | 0.655 enrichment R
21 | B21 | 1.42 enrichment R
22 | B22 | 0.276 enrichment R
